According to the supplement of paper PMC11417369:
± gives the standard deviation of the averaged measurements. This is one part of the list.

These sequences were tested on PfAP2-G AP2 domain (GST-tagged) (assay: gcPBM binding intensity (ln(normalized median fluorescence intensity)); higher = stronger DNA binding).
How it was run: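 Binding intensity values are the highest Masliner-normalised natural-log median intensity among replicate spots of either probe orientation. The binding step lasted 1 h in 1× PBS with 1% milk, 0.2 mg/ml BSA, 0.5% salmon testes DNA and 0.03% Triton X-100, using GST-tagged P. falciparum DNA-binding domains expressed in E. coli on an Agilent 4 × 180k array of primer-extended double-stranded 36-bp intergenic genomic probes plus negative controls. Alexa488 anti-GST antibody and a 488 nm scan detected bound protein.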

Sequence | gcPBM binding intensity (ln)
ATATATTATCTGTACACACACATATAAGGGATTATA [CACACA_site4180] | 11.5 ± 0.87
AATAAATAAATAAATAAATAAATATATATATATATA [GTGCAC_negctrl_site330] | 9.81 ± 0.49
TAATGACAATAAAAATAAATAAATAAAAAAAAAAAA [TGCATGCA_negctrl_site321] | 9.51 ± 0.59
AAATTACCCATCCATACACACATATTTTTTTTAATT [CACACA_site2189] | 10.3 ± 0.16
GATACAGATGGACACACACACATACATAAATACATA [CACACA_site5833] | 11.1 ± 0.71
AAGGCATATATAATTTGTACATATTAAGAATTAGAT [XGTACX_site8660] | 10.7 ± 0.35
AAGAAAATAAAAAGGTAAATATGTATAAATAAATAA [TGCATGCA_negctrl_site88] | 9.58 ± 0.23
TGAAATAAAATTATTTGTACATATCGGAAAAAAAAA [XGTACX_site7131] | 10.8 ± 0.4
TTTTTTGAAAATAAATGTACGAATTTTATATTTAAA [XGTACX_site2768] | 10.9 ± 0.84
ATAATTATATACCATGCACACAAATATTCATACAGG [CACACA_site9343] | 10.16 ± 0.064
AAGAACCATATTTAAACACACATACCTATATAAATA [CACACA_site7553] | 9.87 ± 0.014
GCACAAATATATATATATATATATATATATATATAT [GTGCAC_negctrl_site661] | 9.8 ± 0.44
TTATGCATATATTATGCATGTAGTTTTAAATCACAT [TGCATGCA_site104] | 9.63 ± 0.085
TATATACACATTTTTATACACACTTGTTTTATAAAA [CACACA_site8139] | 10.3 ± 0.28
AAAAAATACATACATACACACATATTTATTTATATA [CACACA_site6554] | 9.91 ± 0.099
TATATATATTTATAATGTACACATATATGTAAATAT [XGTACX_site3695] | 11.3 ± 0.86
TGCCCTAACCATACTACACACACTGCTCAAAATAGT [CACACA_site2219] | 10.5 ± 0.28
TACAATATAAAATACACACACACAAACATATATTTA [CACACA_site5941] | 10.02 ± 0.014
ATATATATATATAATACACACTTATGAAATGTCTAA [CACACA_site5077] | 10.2 ± 0.33

Sequence | gcPBM binding intensity (ln)
TTAATACATACATTCACACACACTAATTGTATATTT [CACACA_site9362] | 10.005 ± 0.007
TTCTTTTTTCGACACACACACACAAGAAGATATATA [CACACA_site7456] | 10.4 ± 0.48
AACGAAAATAAGAAAAGTACAAAAAATACCAAATAA [XGTACX_site6171] | 11.2 ± 0.6
ATACGAATAAATTTCGCATGCAGCATATATATCAAT [TGCATGCA_site612] | 9.71 ± 0.23
TGTACAAATATGTTGAAAATAAAATTTCAATATATT [XGTACX_negctrl_site13] | 10.31 ± 0.014
AATAAATAAAAAATTACACACATATATATAAATATA [CACACA_site3434] | 9.69
ATATATGCATATATATGTACATATATATATATATAT [XGTACX_site7403] | 11.2 ± 0.67
TATTTCATATGAAGAAGTACTATTAATAATTTCCTT [XGTACX_site6587] | 11.2 ± 0.79
TAAATTATAAATTGCACACATATTTTTATATTTATA [CACACA_site2976] | 9.71 ± 0.16
ATATTTTTAGATTCAGAAAAAAGATTCAACTTACTC [CACACA_negctrl_site1357] | 9.82 ± 0.14
CAAAAATAATAGAATACATGCAAAAATAAATGTATA [TGCATGCA_site196] | 9.76 ± 0.23
ATAATATATTTAATCATACACACATTTATGTACCTA [CACACA_site1719] | 10.7 ± 0.42
AAAAATAAAGGGTGTGCACACAAAAATATATATATA [CACACA_site1727] | 10.8 ± 0.52
TTTTTTTTTAAAACATAATAAAAAATAAAACAACCT [GTGCAC_negctrl_site92] | 10.2 ± 0.29
ACATATTATTCAAGTGCACACTTTATATTTATGATT [CACACA_site3295] | 10.23 ± 0.028
ATTTAATTCGTACATACACACGCACATATATATATA [CACACA_site8415] | 11.3 ± 0.78
TATATGAAATATTATGCACACAATATATAATATGAT [CACACA_site936] | 9.94 ± 0.099
AATAATTCATCATATGCACACACAATACCAAAATGT [CACACA_site7945] | 10.3 ± 0.15
TCATTTTAATTAAAAGTGCAAAAAATAATATAACTA [GTGCAC_site9968] | 10.1 ± 0.13

Sequence | gcPBM binding intensity (ln)
ATTAATTCGTTTTGTACACACATAATGAATAATTTA [CACACA_site2235] | 11.1 ± 0.71
TACAATAATGATTGTTGTACATTATTGATATTTAAA [XGTACX_site2940] | 10.9 ± 0.67
TTTAATTTTTAATCAGTGCAATATTATATAATATAT | 9.88 ± 0.18
AAAAAAAAACAGAAAACACACAAATTATCTTAGAAT [CACACA_site309] | 9.76 ± 0.18
TTATATAGGTCATTCATAAATACAGTTTTTAAAAAA [CACACA_negctrl_site1340] | 10.2 ± 0.3
ATTTATTTCACAAAAACATGCAGTTTGAAATTGCCA [TGCATGCA_site910] | 9.785 ± 0.049
AATTCATTATATATACGTACATATTTCTGTATAAAA [XGTACX_site6371] | 11.3 ± 0.79
GCATAAATTATCATAACATAAATATAAAAATATAAT [GTGCAC_negctrl_site55] | 9.79 ± 0.2
GATTATTTTATAAGTACACACATTTATATATAATAA [CACACA_site2573] | 11.5 ± 1.1
AAAAAAAAAAGACACACACACACATAAATATAAATA [CACACA_site6215] | 10.1 ± 0.11
TTTCACCATATAAACGTGCACACTACAAAAATATAT [CACACA_site2547] | 10.6 ± 0.44
TTCATGCTTATATGTGCACACACAAAAGAAAAGAAA [CACACA_site1656] | 10.6 ± 0.57
AAATAATAAATTATAACACACATATATATATATATA [CACACA_site4045] | 9.95 ± 0.3
ATAATACAATTTATAACACACACACTATAATACATA [CACACA_site8338] | 10.025 ± 0.007
GGAAAGACAGTTCACAGTACCCAGTAACTCTACGGA [XGTACX_site2009] | 10.6 ± 0.3
TTGTTTATCAACAGCACACACAACAACAACAACAAC [CACACA_site458] | 10.1 ± 0.23
ATAAAAACATAAACAAATCAAAAAAAAAAAAAAAAA [CACACA_negctrl_site13] | 9.54 ± 0.38
GAGCGTAATCTATTTGCACACTTATTTGTTCTTAAA [CACACA_site673] | 10.055 ± 0.007
